Measurements taken from ChEMBL document CHEMBL4888484, “Replenishing the malaria drug discovery pipeline: Screening and hit evaluation of the MMV Hit Generation Library 1 (HGL1) against asexual blood stage Plasmodium falciparum ,using a nano luciferase reporter read-out” (2022).
Among all 150,000 compounds or so, about 540 (0.36%) showed an effect of 50% or more. The list shows a part of the results.

What follows are molecules tested on Plasmodium falciparum (assay: Primary screen in NF54 nanoGlo assay, in single point, at 2uM, 72h; a lower Z score goes with more inhibition). Conditions: timepoint 72 hour.
Type: functional, Erythrocyte

Row | Compound | % Inhibition [%] | Z score
1 | CC(C)Cn1ccnc1NC(=O)c1cc2cccn2cn1 | -17 | 2.63
2 | CS(=O)(=O)N1CCC(C(=O)N(CCc2cccs2)C2CCOCC2)CC1 | -11 | 1.75
3 | Cc1ccccc1[C@H](CNC(=O)N(C)Cc1ccon1)N1CCC(C)CC1 | -14 | 2.72
4 | CC(=O)Nc1nc(C)c(S(=O)(=O)N[C@H]2C[C@H]3CN(C)CCN3C2)s1 | 2 | -0.29
5 | O=C(NCc1nccnc1-c1cccs1)c1ccccn1 | -11 | 2
6 | Cc1cc([C@H](C)NS(=O)(=O)c2c(C)nn(C)c2C)c(C)o1 | -3 | 0.46
7 | Cc1cc(OC2CN(C(=O)c3sc(C)nc3C)C2)n2ncnc2n1 | -13 | 2.52
8 | Cc1ccc(C(=O)COc2ccccc2N2C(=O)C3CCCCC3C2=O)cc1 (stereo unspecified) | -17 | 2.23
9 | Cc1ccc(S(=O)(=O)N2CCN(C(=O)CN3CCCC3)C2)cc1 | -5 | 0.77
10 | CCOCc1ccccc1CNC(=O)Nc1cc(C)ns1 | -44 | 5.17
11 | CCOC(=O)c1cccnc1N[C@H]1CCc2nc(C)nn2C1 | -9 | 1.15
12 | O=C1[C@@H]2CC[C@@H](CN(c3ncnc4[nH]ccc34)C2)N1Cc1ccccc1 | -20 | 1.89
13 | Cc1ccc([C@@H](NCC2CN(S(C)(=O)=O)C2)C2CCCC2)cc1 | -6 | 0.57
14 | Cc1ccc(S(=O)(=O)[C@H](C#N)c2nc3ccccc3nc2N2CCN(c3ccccc3)CC2)cc1 | -13 | 1.2
15 | Cc1nc(N2CCCCC2)ncc1-c1cc(=O)[nH]c(Nc2ccc(F)cc2)n1 | -14 | 1.95
16 | Cc1cccc(N2CCC(n3ccnc3-c3cc4n(n3)CCNC4)CC2)c1 | -1 | 0.22
17 | Cc1c(N2CCOCC2)c(C)n(Cc2c(F)cccc2F)c1C(=O)NCc1ccc2c(c1)OCO2 | 1 | -0.09
18 | CCc1nnc(CN2CCC3(CCC(=O)N([C@H]4CC[C@H](O)CC4)C3)CC2)o1 | -10 | 0.92
19 | CCOC(=O)c1cc(C(C)(C)C)n(C2CCN(C(=O)[C@H](C)Oc3ccccc3)CC2)n1 | -9 | 1.39
20 | O=C(COc1cccc2c1CCC2=O)NC1CC1 | -13 | 2.32
21 | C#CCC1(C(=O)Nc2ccc3[nH]ccc3c2)CCCCC1 | 12 | -2

Row | Compound | % Inhibition [%] | Z score
22 | O=C(Cn1cnnn1)NC1(c2cc(C(F)(F)F)ccc2Cl)CC1 | -51 | 5.95
23 | O=C(Cc1ccc(F)cc1)Nc1ccc(N2CCN(C(=O)c3ccc(Cl)cc3Cl)CC2)nc1 | -7 | 1.08
24 | O=C([C@H]1C[C@@H]1c1ccccc1)N1CCC(OCCc2ccccc2)CC1 | 3 | -0.48
25 | O=C(N[C@H]1CCc2nccn2C1)c1csc(-c2cccs2)n1 | 5 | -1.09
26 | COc1ccc(CC(=O)Nc2nnc(-c3ccco3)o2)cc1C | -2 | 0.22
27 | CCCNC(=O)CN(CCC)C(=O)Cc1ccccc1OC | 1 | -0.14
28 | Cc1cc(C(=O)N[C@H]2CCN(Cc3ccc(N(C)C)nc3)C[C@@H]2O)no1 | -4 | 0.42
29 | COc1cccc2c1OCc1cn(nn1)[C@H]1CN(C(=O)Cc3ccc4c(c3)OCO4)C[C@H]1CC(=O)NCCN(C)C2=O | -13 | 1.42
30 | CCC=CCCn1ccc(C2(C)OCCO2)cc1=O | -5 | 1.06
31 | Cc1nc(N2Cc3cnc(CC(C)C)nc3C2)no1 | -5 | 0.48
32 | Nc1nc(NCCO)cc(-c2ccc(OCc3ccccc3)nc2)n1 | 2 | -0.42
33 | COc1cccc(CNS(=O)(=O)c2ccc(-c3onc(C)c3C)s2)c1 | -4 | 0.36
34 | CCNC(=O)N1CC(=O)N(CC2CC2)C1 | -9 | 1.57
35 | CN(C(=O)c1cccc2cn[nH]c12)C1CCCCCC1 | 0 | 0.06
36 | CC1CC(C)(C)CC(CO)(NC(=O)C2CCOC2C)C1 (stereo unspecified) | -11 | 1.07
37 | Cc1ccc(CC2CN(C(=O)Nc3nn(C4CCCCC4)cc3C)C2)cc1 | -14 | 2.7
38 | CCc1nc2ccccc2c(N2CCO[C@H](c3nc(C)n[nH]3)C2)c1C | -15 | 1.54
39 | CCN(CC)C(=O)CN1CCCN(CC(=O)Nc2c(C#N)c(C)c(C)n2Cc2ccco2)CC1 | -7 | 1.31
40 | O=C(NC[C@H]1COc2ccccc2O1)C1CCN(S(=O)(=O)c2ccc3c(c2)CCC3)CC1 | -3 | 0.39
41 | O=C(NC[C@H]1Cn2ccnc2CO1)Nc1ccccc1 | 26 | -2.95
42 | CC1CCC(Oc2cc(CNS(=O)(=O)c3cnnn3C)ccn2)CC1 (stereo unspecified) | -4 | 0.56

Row | Compound | % Inhibition [%] | Z score
43 | O=C(C1CCOC1)N1CCCC(NS(=O)(=O)c2ccccc2)C1 (stereo unspecified) | 9 | -0.9
44 | Cc1cc(N2CCN(c3c(N)c(C)nn3C)CC2)c(C#N)c(C)n1 | 9 | -1.51
45 | COc1cccc(NC(=O)N[C@H]2CCCS(=O)(=O)C2)c1 | -6 | 1
46 | Cc1n[nH]c(C(C)C)c1C(=O)N1CCCN(Cc2ccc(Cl)cc2)CC1 | -10 | 1.31
47 | Cc1ccc(OCC2(CS(C)(=O)=O)CC2)nc1 | -2 | 0.31
48 | CC(=Cc1ccccc1)CNCCn1cccn1 | 0 | 0.05
49 | CC1(C)C2CCCN(C(=O)Cn3c(=O)cnc4ccccc43)C1C2 (stereo unspecified) | -20 | 2.66
50 | CCn1nccc1C(=O)N1CCC[C@@]2(CCC(=O)N(Cc3cnc(C)cn3)C2)C1 | -11 | 1.18
51 | Cc1ccc(N2CCCN(Cc3ccc(C)c(C)c3)C2=O)c(NC(=O)OCc2ccccc2)c1 | 18 | -2.21
52 | Brc1ccc2c(c1)C1(CCCC1)CN2Cc1nnc(C2CC2)o1 | 3 | -0.44
53 | CN1CCN(C(=O)[C@H]2CC[C@@H](O)CC2)C[C@H]1c1ccccc1 | -13 | 2.56
54 | O=C(Nc1cccc2ccccc12)c1cc(=O)[nH]c2ccccc12 | -6 | 0.78
55 | Cc1c(C(=O)Nc2ccccc2C(N)=O)cccc1N(C)S(C)(=O)=O | -6 | 0.97
56 | CCn1ccnc1[C@H]1OCCC[C@@H]1C(=O)Nc1ccnn1Cc1ccc(C)cc1 | -4 | 0.61
57 | CCCC(=O)N1CCCN(S(=O)(=O)Cc2ccccc2)CC1 | 1 | -0.09
58 | CCN(C(=O)Cn1c(Nc2cccc(C)c2)nc(C)cc1=O)c1ccccc1 | -15 | 1.58
59 | CCN(CC(=O)N1CCC2(CC1)CN(C(C)=O)[C@@H]1COC[C@@H]12)c1ccccc1 | -6 | 0.91
60 | O=C1Nc2ccc(-c3ccccc3F)cc2C(=O)N2CCN(C(=O)c3ccc(C(F)(F)F)cc3)C[C@@H]12 | -12 | 2.22
61 | OC(CN1CCCC(N2CCCCC2)C1)c1ccccc1 (stereo unspecified) | 7 | -0.8
62 | C[C@@H](C(=O)NCc1cccs1)S(C)(=O)=O | -2 | 0.41
63 | CN1C(=O)N[C@@H]2CN(Cc3ccc(F)cc3)CC[C@@H]21 | -10 | 1.68

Row | Compound | % Inhibition [%] | Z score
64 | COCCN1C(=O)C[C@H](C#N)[C@H]1c1cnn(C)c1C | 1 | -0.15
65 | CCc1nc(CNC(=O)Cc2c3c(n(C[C@H]4CCCO4)c2C)CCCC3=O)no1 | -16 | 2.38
66 | Cc1cccc(-n2cc(CN3C[C@@H]4CC[C@H]3CN(c3cnccn3)C4)cn2)c1 | -2 | 0.24
67 | C#C[C@H](C)OC(=O)c1ccc(Cl)cn1 | 2 | -0.31
68 | NC(=O)N1CCCC(C(=O)OCC2CCCc3ccccc32)C1 (stereo unspecified) | -9 | 1.35
69 | CCc1cc(CN(CC)C[C@H](O)c2cccc(O)c2)on1 | -16 | 2
70 | C[C@H]1COC(C)(C)CN1C(=O)Nc1ccc(C2CC2)cn1 | -12 | 2.17
71 | Cc1cnc(C2CCN(c3ncc(Br)cc3C#N)CC2)s1 | -11 | 1.74
72 | O=C1NC(=O)C2(CCN(c3nc(-c4cccnc4)nc4ccccc34)CC2)N1 | 27 | -3.57
73 | O=c1c2cc3c(=O)n(Cc4ccccc4)c(=O)c3cc2c(=O)n1Cc1ccccc1 | -6 | 1.21
74 | Cc1ccc(NC(=O)c2coc(-c3ccccc3)n2)cc1N1C(=O)CNC1=O | -9 | 1.47
75 | O=C(CCn1cnc2cc(-c3noc(-c4ccccc4)n3)ccc21)N1CCCCCC1 | -17 | 2.21
76 | CC(C)Oc1cc(NC(c2cccs2)[C@H]2C[C@@H](O)C2)nc(N)n1 (stereo partly specified) | 7 | -0.67
77 | c1ccc([C@@H]2CCCCN2Cc2c[nH]cn2)cc1 | -7 | 0.69
78 | CNC(=O)C(C)(C)CNC(=O)Nc1nc(C)nn1-c1ccccc1 | -11 | 1.23
79 | CCN(CC)c1onc(-c2ccccc2)c1CN(CC1CC1)C(=O)c1ccc2c(c1)OCO2 | 7 | -1.43
80 | Cc1cc2cc(CN3C(=O)c4ccccc4[C@@H]3O)ccc2n1C | 35 | -3.94
81 | Cc1ccc(-c2nnc(-c3nn(C)c4c3CN(S(=O)(=O)c3c(C)n[nH]c3C)CC4)o2)cc1 | -2 | 0.14
82 | Cc1ccccc1OCC(=O)N1CC[C@H](n2nccn2)C1 | 2 | -0.27
83 | Cc1cc(CS(=O)(=O)CCC2CC(C)CC(C)C2)on1 (stereo unspecified) | -4 | 0.8
